From PubChem BioAssay AID445 (National Center for Advancing Translational Sciences (NCATS), 2006)
The whole screen tested about 110,000 compounds, of which about 40 (0.04%) were called active. The inconclusive results got no clear call from the source; some entries with a clear call stand among them for comparison. Calls follow the shape of the dose curve; as a rule, active = well fitted curve in the direction sought with a large enough effect in the signal ratio (not every such curve was filed as active); inconclusive = small, poorly fitted or top-dose-only effect, or a change in a side signal; inactive = flat fitted curve, though single readings scatter; the % refers to the signal ratio. Potencies of inconclusive entries are doubtful fits and often do not repeat.

Assay: IkB Signaling;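 as to IkBa stabilization activation: 0% = basal untreated cells and 100% = reference inhibitor full response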
Settings: ABC-DLBCL IkBa-CBG/CBR dual luciferase ratio (green luciferase fused to IkBa over red control in OCI-Ly3 lymphoma cells), 4 h; IkBa stabilization activation: at 57.1 µM (top of the series), scaled: untreated 0%, proteasome inhibitor 100% unless noted
Method in brief: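 Curves were fitted separately to fusion (green), unfused (red) and ratio luminescence, then classed by r2, magnitude and activity. Cells: OCI-Ly3, 4 h compound plus doxycycline at 37C; 10 uM MG-132 defined full response.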
Potency is read from the fitted curve at half-maximal effect.

| Compound | IkBa stabilization activation | Potency |
| --- | --- | --- |
| Cc1cn2c(=O)cc(COC(=O)COc3ccccc3C)nc2s1 | inactive: -0.219% | – |
| CCN(Cc1ccccc1)C(=O)Cn1c(=O)n(-c2ccc(C)c(C)c2)c(=O)c2c(C)c(C)sc21 | inconclusive: 1.96% [signal inhibitor] | – |
| COc1ccc(CNc2oc(-c3ccc(COc4ccccc4C)o3)nc2C#N)cc1 | inconclusive: 1.04% [signal inhibitor] | – |
| O=C(Nc1nccs1)c1cc2sccc2n1Cc1ccc(F)cc1 | inconclusive: -3.87% [signal activator] | – |
| COc1cccc(C(=O)Nc2cccc(-c3cn4c(C)csc4n3)c2)c1OC | inconclusive: 0.429% [signal inhibitor] | – |
| O=C(Nc1cccc(Cl)c1)c1cc2c(=O)[nH]c3ccccc3c2s1 | – | inconclusive: 3.98 µM [signal inhibitor, partial curve] |
| Cc1cccc(N2CCN(C(=O)CCn3c(=O)c4cccn4c4cccnc43)CC2C)c1 (centres undefined) | inconclusive: -0.924% [signal inhibitor] | – |
| N[C@@H](Cc1cc(-c2ccc(Cl)cc2Cl)cc(CP(=O)(O)O)c1O)C(=O)O | inactive: 0.0393% | – |
| CC1(C)CCC2=C(O1)c1ccccc1C(=O)C2=O | – | inconclusive: 25.1 µM [rising, partial curve] |
| CNc1nc(-c2ccc3c(c2)OCO3)nc2ccccc12 | inactive: -2.37% [at 11.4 µM, scaled: untreated 0%, proteasome inhibitor 100%] | – |
| Cc1nnc(N2CCCC(C(=O)NCCc3ccc(Cl)cc3)C2)c2nn(-c3ccccc3)c(C)c12 (centres undefined) | inconclusive: -1.77% [signal inhibitor] | – |
| CCOc1ccc(-c2nn(CC(=O)NC3CCCC3)c3c2cnc2ccc(F)cc23)cc1 | inactive: -3.04% | – |
| CCc1ccccc1NC(=O)c1cnc2sc(N3CCCC3)nn2c1=O | inactive: -0.178% | – |
| CCN(CC)c1ccc(-c2nc(-c3ccccc3C)no2)cc1[N+](=O)[O-] | inactive: 0.46% | – |
| O=C(NCCc1ccccc1Cl)c1ccc2c(c1)nc1n2CCCCC1 | inconclusive: -0.432% [signal inhibitor] | – |
| Cc1ccc(Cl)cc1N1CCN(Cc2nnc(-c3ccc4c(c3)OCO4)o2)CC1 | inconclusive: 7.42% [signal inhibitor] | – |
| Cc1cc(NC(=O)C2CCN(S(=O)(=O)c3ccc(Br)s3)CC2)ccc1Br | inconclusive: 11.1% [signal inhibitor] | – |

| Compound | IkBa stabilization activation | Potency |
| --- | --- | --- |
| CCN(CC)CCCNC(=O)c1cc(-c2cccc(Cl)c2)on1 | inconclusive: 8.62% [signal inhibitor] | – |
| Cc1ccc(CNC(=O)CSc2n[nH]c(-c3ccc(F)cc3)n2)cc1 | inconclusive: 1.13% [signal inhibitor] | – |
| O=C(COc1ccccc1O)Nc1ccc(Cl)cc1 | inconclusive: 14.1% [signal inhibitor] | – |
| COc1cccc(C(=O)Nc2ccc(NC(=O)C(C)(C)C)cn2)c1 | inactive: 1.6% | – |
| Cn1cccc1C(=O)N1CCC2(CC1)CN(C(=O)Nc1cccc(C#N)c1)C2 | inactive: -0.88% [at 11.4 µM, scaled: untreated 0%, proteasome inhibitor 100%] | – |
| COc1cc2c(=O)n(CC3CCCO3)c(=O)n(CC(=O)Nc3cccc(Cl)c3)c2cc1OC (centres undefined) | inconclusive: 4.7% [signal inhibitor] | – |
| COc1cc(CO)cc(Br)c1OCC(=O)O | inactive: -1.87% | – |
| O=C(c1ccc(COc2ccc(Cl)cc2)o1)N1CCN(Cc2ccc3c(c2)OCO3)CC1 | inconclusive: -0.526% [signal inhibitor] | – |
| CC(C)c1ccc(OC(=O)c2cc(-c3ccccc3)on2)cc1 | inactive: 1.4% | – |
| Cc1ccc(NC(=O)Nc2nnc(N(C)Cc3ccccc3)s2)c(C)c1 | inconclusive: 2.9% [signal inhibitor] | – |
| CC(=O)N1CCc2c(sc3nc(SCC(C)C)n(-c4ccc(F)c(Cl)c4)c(=O)c23)C1 | inconclusive: -0.275% [signal inhibitor] | – |
| COC(=O)c1ccc(C2C(C(=O)Nc3ccccc3)=C(C)Nc3nc4ccccc4n32)cc1 (centres undefined) | inconclusive: -1.4% [signal inhibitor] | – |
| CC1CCCCN1CCn1c(=S)[nH]c2ncccc2c1=O (centres undefined) | inactive: -1.33% | – |
| COc1cc(C)cc2oc(=O)c(CC(=O)NCc3cccc(Cl)c3)c(C)c12 | inactive: -0.631% | – |
| CN(C)S(=O)(=O)N(CC(=O)Nc1ccc(C(F)(F)F)cc1)c1ccccc1 | inconclusive: 2.93% [signal inhibitor] | – |
| Cc1ccc(OCCSc2nc3ccc(NC(=O)c4cccs4)cc3s2)cc1 | inactive: -0.551% | – |
| Cc1nc(N2CCOCC2)c2c(C(=O)NCc3ccc(Cl)cc3)c(C)oc2n1 | inconclusive: -1.63% [signal inhibitor] | – |
